Measurements from the supplement of paper PMC5499739.
The full ranking holds about 16,000 sequences; the median of “Z-score” is about -0.37, and the highest 2% start at about 3.1. Some of the results follow.

Each sequence was assayed on RBM10 RRM1-ZnF-RRM2 (GST-tagged construct) (assay: RNAcompete 7-mer binding Z-score; higher = stronger binding preference).
Procedure: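 RNAcompete: 20 pmol GST-tagged RBM10 RNA-binding constructs were incubated with a designed RNA pool of about 241,000 sequences up to 41 nt (1.5 nmol) on glutathione beads for 30 min at 4 °C and washed. Bound RNAs were identified by microarray hybridisation. Each RNA 7-mer is scored by a one-sided Z-score of its enrichment, computed over probes that contain the 7-mer within longer pool sequences.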

Sequence	RNAcompete 7-mer binding Z-score
UAGAGGG	3.16
ACUUUUA	-0.828
CAGCAAG	-0.0889
UACUAUU	-0.675
CACGAUU	-0.606
UGCAUAA	-0.424
AUCGAAU	-0.355
CAGUGCG	0.359
CGGAGGU	2.46
UCUCAAU	-0.617
AUACGUG	0.337
GGGGGAU	2.89
AAGCUGG	0.548
CCCGGAC	-0.526
UUACUAG	-0.249
CCACGCA	-0.664
AGGUCAU	0.151
GAACUGU	-0.231
UGCGUGA	0.381
GAUGCGA	0.385
GGCCCGU	-0.449
AGUUAAG	0.181
UCUGGGC	-0.0525
UCCAUGG	-0.0707
CAGACUC	-0.734

Sequence	RNAcompete 7-mer binding Z-score
CUUAUGC	-0.941
CGCUGUA	-0.457
GUAUUAC	-0.125
ACAAAAA	-0.264
CUACCUG	-1.01
UCCAUCA	-0.715
UAGCUUG	-0.53
GAAUCCC	-0.657
GACGUCA	-0.551
AUACGAA	0.0969
ACAGGAC	1.29
ACCUCGG	-0.5
AAGCCCC	-0.777
CAGCUUC	-0.927
CCCUUGC	-0.825
UGCAGGG	2.53
CCAUGGG	1.24
GGCCAUA	-0.107
AGGUCGU	0.461
GAGGUGG	3.37
CGCGCCC	-0.522
AAGCGAC	-0.0452
UCGUCUA	-0.657
UUAAUCC	-0.766
GAGUCGU	0.793

Sequence	RNAcompete 7-mer binding Z-score
UAGUGUA	0.192
AUCCAUU	-0.708
CAUGCUA	-0.635
CCCAGUC	-0.683
GAGAGUA	0.771
CUAAUCC	-0.752
UCGCCCC	-0.708
UGCGACU	-0.3
GAUCCUC	-0.828
GGCUUUA	-0.61
UUUUCAG	-0.548
AAGACGG	1.86
GCCCACU	-0.759
CUAAUUG	-0.653
GGAAAAG	2.97
GCAGUCG	0.432
AGUCGAG	0.326
GAGCCUA	-0.726
CUGACCC	-0.923
CCUUAAA	-0.81
GACGCCC	-0.836
UCUGAGC	-0.646
AUGAGAG	1.03
GCCACGU	-0.446
AGGUAAA	2.1

Sequence	RNAcompete 7-mer binding Z-score
UCACUAC	-0.562
GCUGGUA	0.698
GGAGCGU	1.74
UUGUGAA	-0.00512
GGUCCAC	-0.224
UUCUAGG	-0.176
AACCUCU	-0.876
CUCCAAA	-0.846
UAGAAAG	0.709
GAAUCGA	0.0386
GGCUCCC	-0.151
GCCCCUU	-0.748
CGCAUCA	-0.712
GUUUGUA	-0.249
AAAUCGU	-0.442
ACUUCCU	-1.01
GCCGCUG	-0.3
CAUUUUA	-0.999
CUAGUGG	0.578
CCACGUG	-0.227
CUCACCG	-0.628
GGAUUCG	0.505
CCCGGAG	-0.0816
CUGGGCA	0.76
ACUGUUU	-0.854

Sequence	RNAcompete 7-mer binding Z-score
UUUCUGG	-0.333
AAAAGGG	3.58
UAUCGCU	-0.683
GUGGGAA	3.49
UUUCCUG	-0.701
UUUCAGA	-0.599
UCCAAAA	-0.628
AUAUUAA	-0.395
UCCGUUU	-0.777
ACUCGAC	-0.799
AUGUAAG	0.235
UUGUUGC	-0.865
CUAGAAU	-0.628
UUGCGAG	-0.0124
GACCGGU	-0.0634
CUUUUUG	-0.89
CGUGAUC	-0.632
UACCUAA	-0.624
UAUUCAG	-0.362
CGCCAAG	-0.424
UACUGGU	0.0277
CCUUGCG	-0.661
UUGCCGG	-0.493
CUGGCAG	0.024
CGGCGGG	1.97

Sequence	RNAcompete 7-mer binding Z-score
CAGGCGA	1.17
CCCUACU	-0.763
UCUGACG	-0.686
GGGACCU	0.541
GCAACCG	-0.431
CGAUUCC	-0.868
GGUCAGA	0.782
CGGAUCA	0.578
CCUCAAA	-0.901
UCCGCGG	-0.129
GUUUUAU	-0.482
UUAGGUU	0.65
UCGAAGA	-0.158
UUUAUUU	-0.726
CAAAAAC	-0.519
CCCAAAC	-0.704
CGCUUGU	-0.81
GUUAUAC	-0.144
ACUAAGC	-0.602
AAGCGGG	3.03
GGGCGUC	1.14
CGAGGUC	0.25
UAGUCGG	0.589
CGGACUA	-0.0853
CAAGAGC	-0.0343

Sequence	RNAcompete 7-mer binding Z-score
UUAUAAG	-0.442
GGGUGGC	2.45
CGUGGCA	0.643
GGCGCGC	0.694
GACCCGU	-0.876
GCAUCAC	-0.548
CCCUAUU	-0.894
CUGUCUC	-0.894
CAUUGUA	-0.584
CGUUGGC	-0.209
CAGGAGG	2.42
UCGGCGU	0.297
GCGCGAC	-0.304
AUUACGG	0.439
CAUGAAA	-0.242
GCCUGCA	-0.621
ACUCUCA	-0.832
UUUCGCC	-0.945
AAUGGUU	2.34
UCUCCAG	-0.697
UCAGAAG	0.286
GACCUAC	-0.905
AUGCCGU	-0.639
AGCGAGG	3.06
UGGCCCG	-0.253

Sequence	RNAcompete 7-mer binding Z-score
CAAUUUU	-1.01
AUGAGAC	-0.147
ACAACCA	-0.304
GUCUAUU	-0.595
CUUUGGC	-0.879
GGGAGAU	2.35
UAAGUAG	0.683
GUUUGAA	-0.431
CGCUGCG	-0.227
AAGUCCG	-0.632
UAUUUAG	-0.26
UCCUUGC	-0.77
AUAUUCG	-0.417
CUCGUAA	-0.726
UGCUUGC	-0.73
UUGGUGU	0.909
UGCGUAC	-0.067
UGACUGC	-0.602
ACCGAAG	-0.439
CCGCAGC	-0.621
CUAACUU	-0.89
CUUCUUG	-0.905
GAAGUUU	-0.147
GUCUGGC	-0.366
UUCGCCC	-0.883

Sequence	RNAcompete 7-mer binding Z-score
GAUUCAU	-0.446
GUGCAAU	0.399
GUCUGUG	-0.125
UCAGUAG	0.661
GCGUGCA	0.213
UGUCGUC	-0.373
ACCUUCU	-0.981
UAGAGAC	0.192
ACUCCCU	-0.868
ACGAGGC	0.742
UUUGUAG	-0.369
ACCAUCA	-0.577
CGUACGA	-0.395
UGGGCAA	2.37
CACGGCU	-0.468
AUGAACU	-0.282
UUUGCAG	-0.362
GGAACCG	1.24
UCCAUAA	-0.741
UAGACAC	-0.154
AAUAUUU	-0.77
UUUCCAU	-0.551
AGUCGAU	-0.0707
GGACCUC	-0.0816
AGCCGGG	0.905

Sequence	RNAcompete 7-mer binding Z-score
CACAACG	-0.395
GGCUUUG	-0.191
CGACAUG	0.37
CCUACAG	-0.752
CAGCAGC	-0.246
GGGAAAU	2.87
CUUCGCU	-0.905
ACUGGCC	-0.621
CGCUCCC	-0.533
CCCCGCG	-0.504
GCGACAA	0.21
UCGCAAC	-0.686
GAAGACA	0.352
GACUUUU	-0.697
AACCGUG	-0.00148
CCCUUAU	-0.814
AGAAAUC	-0.511
AGUGUUC	-0.559
AGUCCUG	-0.497
GCAUCGU	-0.282
AUUAAGG	1.26
UGUAGGG	3.34
UGUUGUC	-0.752
GAAUAUG	0.749
CAGAGUC	-0.165

Sequence	RNAcompete 7-mer binding Z-score
AACUCCU	-0.821
GCAAGGU	2.17
AGUAAUC	-0.3
AGGACCA	0.0349
UUUACCU	-0.821
GACGCGA	-0.235
GUUUUCA	-0.333
UUUACCC	-0.897
GACCGCG	-0.533
GAACGCA	-0.147
CGACAUU	-0.431
GUUAAUA	-0.249
AUGUUCG	-0.446
UAGAGCC	-0.388
GCCUGCG	-0.5
CGAUGCC	-0.544
UACGAAA	-0.151
GAACAGC	0.0204
CGCCAGC	-0.439
CCAGGGG	1.43
UCGCUUA	-0.763
AGGCACG	0.202
CCCUGAU	-0.744
GCCGACU	-0.887
CUGCCGG	-0.202

Sequence	RNAcompete 7-mer binding Z-score
GCGAUAA	0.374
GUGAAUG	1.1
CUGCGGC	-0.107
UGUGUGC	-0.118
CCACGUC	-0.57
ACAUGGA	1.76
CGGAGGG	2.92
AGAACUC	-0.785
AUCGGUA	0.581
CGCUCCA	-0.653
CCGGAUU	-0.435
CGGGCAG	1.99
UCGCGAU	-0.726
GUUAUUG	0.195
UGACCGC	-0.544
CUACCGG	-0.57
AAAGAUA	0.0277
ACACUGC	-0.737
ACACGGG	1.91
GUAGGGC	2.85
GUGUCAA	0.0604
CGGGUCA	1.51
CCUAAUU	-0.828
CCGGGGC	0.942
GUUGAGA	0.64

Sequence	RNAcompete 7-mer binding Z-score
UUCCUUC	-0.763
GUCACGG	0.599
GAUCCUG	-0.85
UUCUUCU	-0.788
AAGACUA	-0.198
CCUAGGG	0.869
AUUCAUG	-0.307
GAAGCAA	0.341
AUAGCAU	-0.366
UAAGGUA	1.39
AGCUGGC	0.0604
CUCUACA	-0.843
CGAGUAA	0.505
CUUGCUU	-0.948
CCGGGGA	1.12
AUAAGAA	0.177
GCUGGAU	0.548
GAUACCG	-0.311
AGGGCCC	-0.238
AUGAUCA	-0.326
AUGCCUU	-0.872
GUUCCGG	0.283
CCCUAAC	-0.781
CUGUGUU	-0.89
ACAUUGU	-0.428

Sequence	RNAcompete 7-mer binding Z-score
CAAACCG	-0.384
UAUGUUG	-0.449
CCACAAU	-0.759
AAUUGCC	-0.755
GCCCCUA	-0.708
UCUAGCG	-0.624
GCCAGUU	-0.752
CCCGCAG	-0.511
UGCACUU	-0.744
GGGUGAG	4.12
CAUGAUA	-0.122
CGACCUA	-0.817
UUUAAUC	-0.737
ACCGGUG	0.607
CCGCUAG	-0.588
CGUUUAA	-0.759
AAGGGUU	3.94
CUCCGGU	-0.584
GUGCUGC	-0.227
UCUGAAA	-0.562
AUCUCUA	-0.814
GUAAUGU	0.545
UUAGGAU	0.996
CACCCCU	-0.562
ACAAAGA	-0.18

Sequence	RNAcompete 7-mer binding Z-score
CAGAGAG	0.938
AUACAAU	-0.275
CGCUCGG	-0.158
UGUGGCG	1.34
UCCCUUC	-0.737
CUCAGAU	-0.632
UAAACUC	-0.73
CUAGGGA	1.6
AGGAUAA	1.21
UCAGCCU	-0.843
GGUCGCG	0.687
GUUAUCU	-0.395
AGUCCUU	-0.806
UGCUGUU	-0.777
CGCACUA	-0.65
CCGAUAC	-0.533
UGCAGCG	0.53
